# Screen size: about 50,000 compounds; about 800 (1.6%) showed an effect of 50% or more. The list shows a part of the results.
# Target: Bcl-2-like protein 10 (Homo sapiens) (UniProt Q9HD36)
# Assay: TR3 peptide-Bcl-B binding displacers, biochemical primary FP assay, phenotype converters (AID 1240);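 further: 0% = Bcl-B with tracer peptide and DMSO and 100% = tracer peptide lacking Bcl-B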
# Conditions: GST-Bcl-B / FITC-TR3 peptide fluorescence polarization; stronger effect = higher value; compound at 3.75 mg/L
# UniProt Q9HD36, sequence (Q9HD36 whole entry, looked up): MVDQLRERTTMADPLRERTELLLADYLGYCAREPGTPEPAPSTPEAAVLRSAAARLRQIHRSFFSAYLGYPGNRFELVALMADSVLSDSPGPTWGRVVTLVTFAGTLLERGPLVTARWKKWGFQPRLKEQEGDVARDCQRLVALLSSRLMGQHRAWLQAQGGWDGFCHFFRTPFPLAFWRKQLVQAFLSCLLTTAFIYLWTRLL
row,Compound,displacement
1,COC(=O)c1ccc(NS(=O)(=O)c2ccc(OC)cc2)cc1,16.4%
2,O=C(NC(=S)Nc1ccc(-c2nc3cc(Cl)ccc3o2)cc1)c1ccco1,17%
3,CN(C)c1ccc(C2=NN(c3ccc(C=O)cc3)C(c3ccccc3)C2)cc1 (stereo unspecified),16.7%
4,C=CCN1C(=O)CS/C1=N\S(=O)(=O)c1ccc([N+](=O)[O-])cc1,-0.8%
5,CCOC(=O)c1c(NC(=S)Nc2ccccc2)sc2c1CCN(CCc1ccccc1)C2,-66.8%
6,COC(=O)c1ccccc1NS(=O)(=O)c1c(C)cc(C)cc1C,1.6%
7,Cn1c(-n2c(CCN3C(=O)c4ccccc4C3=O)nc3ccccc3c2=O)nc2ccccc21,66.3%
8,Cc1cccc(-n2c(-c3ccccc3)nc3c(cnn3-c3ccccc3)c2=O)c1,-8.1%
9,CCOc1ccc(N2C(=O)CC(Sc3ccccc3C(=O)O)C2=O)cc1 (stereo unspecified),-0.2%
10,O=C(NC(NC(=S)Nc1ccccc1)C(Cl)(Cl)Cl)c1ccccc1F (stereo unspecified),12.2%
11,COCCNC(=O)c1cnn2c(C(F)(F)F)cc(-c3ccco3)nc12,-1.9%
12,O=C1C(=O)N(Cc2cccnc2)C(c2ccc3c(c2)OCO3)/C1=C(\O)c1ccccc1 (stereo unspecified),0.4%
13,O=C(Nc1ccc2oc(-c3ccc(F)cc3Cl)nc2c1)c1cc2ccccc2o1,10.9%
14,COc1ccccc1NC(=O)c1c(Cl)cccc1Cl,3.6%
15,Cc1cccc(N2C(=O)c3ccc(-c4ccc5c(c4)C(=O)N(c4cccc(C)c4)C5=O)cc3C2=O)c1,6.7%
16,Cn1c(=O)c2c(ncn2CN2C(=O)c3ccccc3C2=O)n(C)c1=O,26.3%
17,Clc1ccc(/C=N/Nc2nnc3c(n2)[nH]c2ccc(Br)cc23)c(Cl)c1,-4.2%
18,CCOC(=O)c1c(C)sc(Sc2ccc(Cl)cc2[N+](=O)[O-])c1OC,-2.2%
19,O=C1CC(N2CCN(Cc3ccc4c(c3)OCO4)CC2)C(=O)N1CCc1ccccc1 (stereo unspecified),3.1%
20,CC(C)(C)c1ccc(OCC(=O)Nc2ccc(NC(=O)c3ccco3)c(Cl)c2)cc1,2.7%
21,COc1ccc(CCNC(=O)Cc2ccc(Cl)cc2)cc1,-8.1%
22,O=C(Nc1ccc(Cl)cc1)Nc1ccc(F)c(Cl)c1,1%

row,Compound,displacement
1,CCOC(=O)C1=C(N)Oc2cc(O)ccc2C1c1ccc([N+](=O)[O-])cc1 (stereo unspecified),-10.4%
2,CCN(CC)c1ccc(C(=O)Nc2ccncc2)cc1,3.9%
3,CN(CCO)C(=O)c1c(NC(=O)c2ccccc2)sc2c1CCCC2,-5.3%
4,COc1cc(/C=N/N2CCN(Cc3ccc(C)cc3)CC2)cc(OC)c1O,23.9%
5,Cc1nnc(NC(=O)COC(=O)c2ccc([N+](=O)[O-])cc2)s1,1.7%
6,CN1C(=O)N(C)C2(c3ccccc3)N(N)C(N)=NC12c1ccccc1 (stereo unspecified),2.5%
7,CCOC(=O)C1=C(C)N=C2SCC(=O)N2C1c1ccc(C)cc1 (stereo unspecified),0%
8,O=C(Nc1ccc(Br)cn1)c1ccc(Oc2ccccc2)cc1,-9.1%
9,Cn1c(=O)c(-c2nc3ccccc3c(=O)[nH]2)c(O)c2ccccc21,-3.3%
10,COc1cc(N/N=C/c2ccncc2)ncn1,-5.1%
11,COc1cccc(N2C(=O)C=CC2=O)c1,8.2%
12,Cc1ccc(Cl)cc1NC(=O)C(=O)NCc1ccco1,-13.4%
13,O=C(COc1cc(Cl)c(Cl)cc1Cl)N/N=C/c1cccnc1,10.4%
14,COC(=O)CN(c1cc(OC)ccc1OC)S(C)(=O)=O,6.5%
15,NS(=O)(=O)c1ccc(CCNc2ccc(C(F)(F)F)cc2[N+](=O)[O-])cc1,20.2%
16,O=C(COc1ccccc1Cl)NCCc1nc2ccccc2[nH]1,-1.2%
17,O=C(Nc1ccncc1)C12CC3CC(CC(C3)C1)C2,4.4%
18,Clc1cccc(NCc2ccncc2)c1,11.3%
19,C=CCn1c(SCCC)nc2sc3c(c2c1=O)CCc1ccccc1-3,0.4%
20,O=C(N/N=C\c1cc(O)c(Br)cc1Br)c1ccc(Br)cc1,-0.6%
21,O=C1C(=O)N(CC2CCCO2)C(c2cccc(F)c2)/C1=C(/O)c1ccccc1 (stereo unspecified),-10.8%
22,COc1cc(C(=O)Nc2c(C)cc(C)cc2C)c([N+](=O)[O-])cc1OC,10.6%

row,Compound,displacement
1,COC(=O)c1cc(C(=O)N(Cc2ccccc2)c2ccccn2)cc([N+](=O)[O-])c1,16.3%
2,Cc1cc(C)c2nc3s/c(=C\c4ccc(-c5ccc(Cl)c(C(=O)O)c5)o4)c(=O)n3c2c1,45.2%
3,CCOc1ccc(N2C(=O)S/C(=C\c3ccco3)C2=O)cc1,92.2%
4,CC(C)NCC(O)COc1ccccc1C(C)(C)C (stereo unspecified),-11.3%
5,Cc1ccc(S(=O)(=O)Nc2ccc3c(c2)ncn3C)cc1,-4.7%
6,Cc1ccsc1C=Nc1ccc(-c2ccc([N+](=O)[O-])cc2)cc1,-1.2%
7,O=C(COc1ccccc1)NC1CCC(CC2CCC(NC(=O)COc3ccccc3)CC2)CC1 (stereo unspecified),5.8%
8,Cc1cc(F)ccc1NCc1cccnc1,3.1%
9,COc1ccc2c(c1)OCC/C2=N\OC(=O)c1ccccc1F,-2.8%
10,C/C(=N\OCC(=O)N=Nc1c(O)n(CN2CCN(C)CC2)c2ccccc12)c1ccccc1,-3%
11,CCc1c(C)nc2c(Br)cccc2c1SCC(=O)O,-5.4%
12,O=C(NCCCn1ccnc1)c1cnn2c1NC(c1cccs1)CC2C(F)(F)F (stereo unspecified),-1.1%
13,O=C(O)c1ccc(S(=O)(=O)c2ccc3c(c2)C(=O)N(c2nc4ccccc4s2)C3=O)cc1,-5.7%
14,CN=CC1=C(O)C(C(=O)OC)C(C)(C)CC1=O (stereo unspecified),-0.9%
15,O=C(N/N=C\c1ccccc1C(F)(F)F)c1ccc(=O)[nH]n1,5.5%
16,O=C1C(=Cc2cc([N+](=O)[O-])ccc2O)C(=O)c2ccccc21,-8.6%
17,CCNC(=O)c1ccccc1-c1ccccc1C(=O)O,4.1%
18,Cc1ccc(/C=C(/C#N)C(=O)OC(C)C)o1,0.9%
19,COc1ccc(/C=C(\C(=O)c2ccccc2)c2nc3ccccc3s2)cc1,-3.8%
20,CCOc1ccccc1NS(=O)(=O)c1ccc(OC)cc1,-13.3%
21,O=[N+]([O-])c1ccc(CN2CCN(Cc3cc(Br)ccc3O)CC2)cc1,13.7%
22,O=[N+]([O-])c1ccc2nc(-c3ccco3)[nH]c2c1,13.2%

row,Compound,displacement
1,COc1ccc(OC)c(C2NC(c3cc(OC)ccc3OC)C(C)C(C)(O)C2C)c1 (stereo unspecified),4.9%
2,O=C(N/N=C/c1cccnc1)/C(=C\c1cccs1)NC(=O)c1ccccc1,-9.3%
3,CCOc1ccc(N(CC(=O)Nc2ccc(C)c(Cl)c2)S(C)(=O)=O)cc1,-1.8%
4,CC1CCN(Cc2c(O)ccc3c4c(c(=O)oc23)CCC4)CC1,12.8%
5,O=C(COc1ccccc1)Nc1nc(-c2ccc(S(=O)(=O)N3CCOCC3)cc2)cs1,8.5%
6,O=C(N/C(=C/c1cccc(Br)c1)C(=O)N1CCOCC1)c1ccccc1,-1.7%
7,Cc1ccc(C(=O)N/C(=C\c2ccc(-c3cccc([N+](=O)[O-])c3)o2)C(=O)NCCCN(C)C)cc1,-16.5%
8,COc1ccc(NC(=S)N2CCC(O)(c3cccc(C(F)(F)F)c3)CC2)cc1,-4.5%
9,CCCOC(=O)C1=C(C)NC2=C(C(=O)CCC2)C1c1cc(Br)ccc1OC (stereo unspecified),-3%
10,CC1(C)Cc2ccccc2-c2nnc(-c3cccc(N)c3)n21,-9.2%
11,CCOc1cc(/C=N/NC(=O)c2cc(C34CC5CC(CC(C5)C3)C4)[nH]n2)ccc1O,-7.3%
12,c1csc(CNc2ccc(N3CCOCC3)cc2)c1,14.7%
13,CCOc1ccccc1NC(=O)c1cc2cc([N+](=O)[O-])ccc2oc1=O,11.2%
14,O=C1c2cccc3cccc(c23)C(=O)N1/N=C/c1ccccc1[N+](=O)[O-],7.2%
15,O=c1c(/C=C(\O)c2ccccc2)nc2ccccc2n1-c1ccccc1,10.8%
16,COC(=O)c1ccc(CN(c2ccccc2)S(=O)(=O)c2ccccc2)cc1,43%
17,COc1cc(/C=N/N=C(\N)c2nonc2N)ccc1O,5.1%
18,O=C(CCc1ccccc1)NCCN1CCOCC1,-5.3%
19,O=C(COc1nc2ccccc2s1)N1c2ccccc2CCc2ccccc21,-6.7%
20,CCN(CC)c1ccc(/C=C2\C(=O)NC(=S)N(c3ccc(F)cc3)C2=O)c(OC)c1,-15.2%

# Reference: PubChem BioAssay AID1240 (Sanford-Burnham Center for Chemical Genomics, 2008)
